Reference: PubChem BioAssay AID488969 (Vanderbilt High Throughput Screening Facility, 2010)
In all, about 110,000 compounds were measured (“z-score”: median about -0.1, highest 2% from about 2 on). This is one part of the list. Calls of active or inactive are those of the source.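 How the source made its calls: active means z-score in the third read window above 3 or below -3; inactive means the rest.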

target: Metabotropic glutamate receptor 8 (Rattus norvegicus) (UniProt P70579); test: mGluR8 Gi/Go-coupled signaling modulation – cell-based, rat, thallium flux, HTS, primary screen (AID 488969); settings: HEK293 rat mGluR8, GIRK (G protein-gated inwardly rectifying potassium channel) thallium flux, FluoZin2; at 10 µM; stronger effect = higher value; submaximal glutamate (EC20) added with thallium
Chain of UniProt P70579 (P70579 whole entry, looked up): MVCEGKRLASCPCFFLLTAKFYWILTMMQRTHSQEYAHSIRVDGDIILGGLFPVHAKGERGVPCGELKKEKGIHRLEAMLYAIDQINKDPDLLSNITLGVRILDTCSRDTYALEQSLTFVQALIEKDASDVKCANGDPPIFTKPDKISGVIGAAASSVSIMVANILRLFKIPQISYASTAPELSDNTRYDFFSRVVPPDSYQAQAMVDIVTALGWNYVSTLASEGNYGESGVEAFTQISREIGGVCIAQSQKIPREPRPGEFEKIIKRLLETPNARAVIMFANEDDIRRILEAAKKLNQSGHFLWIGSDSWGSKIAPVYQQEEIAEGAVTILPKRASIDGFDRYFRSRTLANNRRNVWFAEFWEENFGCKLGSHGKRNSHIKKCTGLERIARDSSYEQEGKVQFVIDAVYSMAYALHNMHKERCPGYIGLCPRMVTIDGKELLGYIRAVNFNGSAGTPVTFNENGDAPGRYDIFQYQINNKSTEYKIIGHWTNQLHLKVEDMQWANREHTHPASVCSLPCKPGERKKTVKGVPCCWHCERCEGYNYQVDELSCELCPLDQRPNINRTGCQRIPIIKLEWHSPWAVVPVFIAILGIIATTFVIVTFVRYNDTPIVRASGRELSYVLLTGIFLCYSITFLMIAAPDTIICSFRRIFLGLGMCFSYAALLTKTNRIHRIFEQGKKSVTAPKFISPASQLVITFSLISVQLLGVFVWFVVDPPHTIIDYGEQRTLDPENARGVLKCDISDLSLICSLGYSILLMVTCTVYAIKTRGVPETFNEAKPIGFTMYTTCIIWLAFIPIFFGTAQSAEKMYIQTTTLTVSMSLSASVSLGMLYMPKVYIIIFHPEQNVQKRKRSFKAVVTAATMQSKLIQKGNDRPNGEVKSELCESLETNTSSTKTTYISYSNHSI

Compound	z-score
Cc1nc(N2CCCC2)c2ccsc2n1	-0.369
CC(C)N(CCNC(=O)C1CCN(S(=O)(=O)N2CCOCC2)CC1)Cc1ccccc1	0.267
O=C(c1csc2c1CCCC2)N1CCCCC1	0.211
CCOc1ccccc1NC(=O)CSC1=C(C#N)C(c2ccco2)C(C(=O)Nc2nc3ccccc3s2)=C(C)N1 (stereo unspecified)	0.401
CCSc1ncnc2c1oc1ccccc12	-0.37
Cc1[nH]n(-c2ccc([N+](=O)[O-])cc2)c(=O)c1C=NCCN1CCN(C(=O)c2ccccc2F)CC1	-1.45
CC(CCc1ccccc1)N1CCN(Cc2ccccc2)CC1 (stereo unspecified)	-0.337
COc1ccccc1NC(=O)c1cc2ccccc2o1	-0.485
COc1cccc(Nc2c3c(nc4c(-c5ccccc5)c(C)nn24)CCC3)c1	-0.0626
CCCc1cc(=O)oc2cc(OCc3cc(OC)c(OC)c(OC)c3)c(Cl)cc12	-0.0608
COc1cccc(C2C3=C(N=c4s/c(=C\c5cccc(O)c5)c(=O)n42)c2ccccc2CC3)c1OC (stereo unspecified)	0.00852
O=C(COC(=O)CCC(=O)c1ccc(Cl)cc1)NCC1CCCO1 (stereo unspecified)	-0.0473
Cc1nnc(Sc2nc3ccccc3o2)c2ccccc12	0.212
Cc1ccc2nc(NC(=O)CN3CCOCC3)sc2c1	0.482
CC(CNC(=O)CC(C)(C)C)NC(=O)CC(C)(C)C (stereo unspecified)	-0.138
Cc1ccc(C(=O)OC2CCN(c3ccc([N+](=O)[O-])cc3)CC2)cc1	-0.269
Cc1cc(=O)n2nc(-c3ccccc3)sc2n1	-0.0546
OC(CNCC1COc2ccccc2O1)COCc1cccs1 (stereo unspecified)	-0.47
Cc1nnc(C)n1/N=C/c1cccc(Oc2ccccc2)c1	-1.4
Cc1nn(-c2ccccc2)c(C)c1/C=N/n1c(-c2ccc(C(C)(C)C)cc2)n[nH]c1=S	1.13
Clc1ccc(-c2nnc(-c3ccco3)nc2N2CCCCC2)cc1	-0.507
Oc1[nH]c2ccccc2c1N=Nc1nc2ccccc2s1	2.12
CN(C)c1ccc(-c2noc(C3CCN(S(=O)(=O)c4ccc(C(=O)O)cc4)CC3)n2)cc1	-0.84

Compound	z-score
Nc1ncncc1-c1ccc([N+](=O)[O-])cc1	-0.108
O=C(CNS(=O)(=O)c1cccc(Cl)c1)Nc1ccc(-c2nc3ccccc3s2)cc1	-0.517
O=C(Cc1cccs1)Nc1nnc(SCc2ccc(C(F)(F)F)cc2)s1	0.0915
CC(C)C(c1nnnn1C1CCCC1)N1CCOCC1 (stereo unspecified)	-0.00633
COc1ccc(N(C)C(=O)Nc2ccc3c(c2)nnn3C)cc1	0.188
Cc1ccc(/C=C/C(=O)O)cc1S(=O)(=O)NCCO	0.471
CCOC(=O)c1ccc(N2C(=O)C(O)=C(C(C)=O)C2c2ccccn2)cc1 (stereo unspecified)	0.0337
O=Nc1ccc(NOC(=O)c2ccccc2Br)cc1	-0.308
O=C(NCc1cccs1)c1ccccc1	-0.268
COc1ccc(C(=O)Nc2nc3c(s2)Cc2cc(OC)ccc2-3)cc1	0.0208
Cc1ccc(-n2c(SCC(=O)Nc3ccc4c(c3)OCCO4)nnc2-c2ccco2)cc1	-0.216
NS(=O)(=O)c1cccnc1Nc1c(Cl)cccc1Cl	0.0813
CCOC(=O)c1c(CC(C)C)csc1NC(=O)COC(=O)c1cc(OC)c(OC)cc1[N+](=O)[O-]	-0.488
O=C(C1CC2CCC1C2)N1CCN(Cc2ccc3c(c2)OCO3)CC1 (stereo unspecified)	0.0282
COC(=O)c1[nH]c2c(c1C)C(=O)CC(c1ccccc1)C2 (stereo unspecified)	-0.281
O=C(CNC(=O)c1cccs1)NCC(=O)OCc1c(Cl)cccc1Cl	0.0496
CCC1(c2ccccc2)NC(=O)N(Cc2ccc(C(=O)OC)cc2)C1=O (stereo unspecified)	-0.422
Cn1cccc1/C=N/NC(=O)c1sc2cc(Cl)ccc2c1Cl	-0.527
Cc1ccc(-n2nnnc2SC(C)C(=O)Nc2ccccc2-c2ccccc2)cc1 (stereo unspecified)	-0.321
COc1ccc(OCc2cccc(C(=O)N3CCCC3)c2)cc1	-0.0387
Cc1cccc(OCCCn2c(CCNC(=O)C(C)C)nc3ccccc32)c1	-0.275
CC(C)(C)NC(=O)CSc1nsc(SCC(=O)NC(C)(C)C)c1C#N	-0.0606
COc1cc(C2C(C#N)=C(N)Oc3c2c(-c2ccccc2)nn3-c2ccccc2)cc(OC)c1OC (stereo unspecified)	-0.241

Compound	z-score
CC(C)N(C(=S)Nc1cc(S(=O)(=O)N2CCOCC2)ccc1Cl)c1ccccc1	-0.525
c1ccc(-n2nnnc2-n2ccnc2)cc1	0.463
O=C(COc1ccc(Cl)cc1Cl)N(Cc1ccco1)C1CCS(=O)(=O)C1 (stereo unspecified)	-0.481
O=C(OCN1C(=O)c2ccccc2C1=O)c1ccccc1	0.287
CCCCNC(=O)CCCn1c(=O)c2ccccc2n(CC(=O)NCCC2=CCCCC2)c1=O	-0.355
Cc1ccc(/C(C#N)=C\c2cn(C)c3ccccc23)cc1	-0.217
CCCCn1c(SCC(=O)N2CCN(c3ccccc3)CC2)nc2ccsc2c1=O	-1.07
CCOC(=O)C1=C(C)N=C2SC(C)C(=O)N2C1c1cccc(F)c1 (stereo unspecified)	-1.68
CC(NC(=O)Cn1cnnn1)C12CC3CC(CC(C3)C1)C2 (stereo unspecified)	0.238
COc1ccccc1C(=O)N1C(CC(=O)Nc2cc(Cl)ccc2C)C(=O)NC2CCCCC21 (stereo unspecified)	-0.0821
CC(C)(/C=N/O)/[N+]([O-])=C/c1ccco1	0.0898
CCN(CC)C(=O)CSc1nnc(-c2ccccc2)o1	-0.269
O=C(OCC(=O)c1c[nH]c2ccccc12)C1=COCCO1	-0.388
CCSc1nnc(NC(=O)/C=C/c2ccc3c(c2)OCO3)s1	-0.23
O=C(CSc1ccc(Cl)cc1)Nc1ccccc1N1CCN(C(=O)c2ccccc2)CC1	-0.233
CCOC(=O)C(CCC#N)(CCC#N)C(=O)OCC	-0.16
O=c1cc(-c2ccc([N+](=O)[O-])cc2)nc2cc(-c3ccc(F)cc3)[nH]n12	-0.306
Cc1oc(C(C)(C)C)cc1C(=O)Nc1cccc(C(=O)O)c1	-2.4
CC(=O)c1c(N=CN(C)C)nc(C)nc1-c1ccccc1	0.464
COc1cc2c(cc1NC(=O)C(C)Sc1ccc(C)cc1)oc1ccccc12 (stereo unspecified)	-0.125
COc1ccc(-c2nn(CC(=O)Nc3ccc(Cl)c(Cl)c3)c(=O)c3ccccc23)cc1	-0.116
O=S1(=O)CCN(Cc2ccc(Cl)c(Cl)c2)CC1	-0.199
Cc1cccc(C(=O)N2CCC(n3nnc4cc(F)ccc43)CC2)c1	-0.103

Compound	z-score
Brc1ccc(-n2cc(-c3ccccc3)c3c(NN4CCOCC4)ncnc32)cc1	-0.0384
N#CC1(C#N)C(c2ccccc2)OC23CCCCCC2C1(C#N)C(=N)O3 (stereo unspecified)	0.016
COc1ccc(-c2cc(C(=O)N3CCCc4ccccc43)no2)cc1	-0.108
COC(=O)CN1C(=O)C(O)=C(C(C)=O)C1c1ccc([N+](=O)[O-])cc1 (stereo unspecified)	-0.119
Cc1[nH]c2ccccc2c1/C=C/c1nc2ccccc2c(=O)n1-c1cccc([N+](=O)[O-])c1	0.102
CCOC(=O)c1c(N)nn(C(=O)CC)c1-c1ccccc1	-0.667
COc1c2c(nc3occc13)C(CC=C(C)C)(OC)C(OC(C)=O)CC2 (stereo unspecified)	0.0647
Cc1cccc(NC(=S)NC(=O)CCc2ccccc2)c1C	0.747
COc1ccc(Cl)cc1S(=O)(=O)N1CCCC1	-0.343
CCCc1ccc(-c2ccc(/C=C/C(=O)O)cc2)nc1	-0.295
Fc1ccc(N2CCN(C(c3cccs3)c3nnnn3C3CCCC3)CC2)cc1 (stereo unspecified)	-1.09
CCN(CC)Cc1cc(CC(C(N)=O)C(N)=O)ccc1OC	-0.15
O=C(CSc1ncn[nH]1)Nc1c(F)cc(F)cc1Br	-0.0805
Cc1ccc(CNc2ccc3c(c2)ncn3C)cc1	-0.0947
COCCCNC(=O)CCn1c(=O)c2ccccc2n(CC(=O)Nc2ccccc2C)c1=O	-0.201
COC(=O)c1ccc(NC(=O)CNS(=O)(=O)c2cccs2)cc1	-0.0405
CCCCCC(=O)N/N=C(\C)c1ccc(Cl)cc1	-0.199
Fc1ccc2[nH]c3c(NCCN4CCOCC4)ncnc3c2c1	0.07
Cc1noc(NS(=O)(=O)c2ccc(NC(=O)CCCOc3ccc(Cl)cc3Cl)cc2)c1C	0.465
Cc1ccc(Nc2nc(-c3c(C)nc4ccccn34)cs2)cc1	0.00844
CCOc1ccc(CC(=O)C2C(=O)CCCC2=O)cc1OCC	0.335
COc1ccc(-c2noc(CN(C)S(=O)(=O)c3ccc(Cl)cc3)n2)cc1OC	-0.395
Cc1ccc(Nc2nc(N)nc(CSc3nnnn3-c3ccccc3)n2)cc1	-0.258

Compound	z-score
CCCN(CC1CC1)C(=S)Nc1ccc(Oc2ccccc2)cc1	active: 3.7
Cc1ccc(/C=N/NC(=O)c2sccc2OCc2ccc(F)cc2)cc1	-0.163
O=C(N/N=C\c1ccc(CNS(=O)(=O)c2ccccc2)o1)C(=O)Nc1ccc(F)cc1	0.0979
Cn1c(-c2ccc(F)cc2)cnc1NCc1ccc(C#N)cc1	-0.342
C=CCOc1ccc2c(c1)C(=NO)c1cc(OCC=C)ccc1-2	-0.466
Cc1noc(C)c1S(=O)(=O)Nc1c(C)n(C)n(-c2ccccc2)c1=O	0.316
COc1nc(-c2ccncc2)nc2ccccc12	-0.267
Cc1ccc(NC(=O)/C(=C/C=C/c2ccccc2)NC(=O)c2ccccc2)cc1	-0.104
COC(=O)C(NC(=O)c1ccc(C)cc1)(Nc1cccc(C)n1)C(F)(F)F (stereo unspecified)	-0.71
Cc1ccc(C(=O)CSc2nnc(-c3ccco3)o2)o1	-0.958
CCOC(=O)C1CCCN(C(=O)c2cn(C)c3ccc(S(=O)(=O)N(C)C)cc3c2=O)C1 (stereo unspecified)	-0.568
O=[N+]([O-])c1cc(-c2n[nH]c(-c3ccccc3)n2)cc([N+](=O)[O-])c1	1.48
Cc1c(NC(=O)CN2C(=O)NC(C)(c3ccc4c(c3)OCCO4)C2=O)c(=O)n(-c2ccccc2)n1C (stereo unspecified)	-0.458
CCCCNC(=O)c1nc2ncc(Br)cn2n1	0.0529
Cc1cccc(C(=O)NNC(=O)c2ccc(-c3ccccc3)cc2)c1	0.252
CCc1cc2c3c(c(=O)oc2cc1OC)CCCC3	0.11
Cc1ccccc1OCCNC(=O)c1ccccc1Sc1ccccc1C#N	-0.491
Cc1cc(C(F)(F)F)nn1CC(=O)NCc1ccccc1	-0.468
CC(=O)n1cc(/C=N/NC(=O)c2sc(C)nc2C)c2ccccc21	-0.221
